# Measured values published in PubChem BioAssay AID686971 (National Center for Advancing Translational Sciences (NCATS), 2013).
# Out of some 360,000 compounds screened, about 7,500 (2.1%) were called active. The inconclusive results got no clear call from the source; some entries with a clear call stand among them for comparison. Calls follow the shape of the dose curve; as a rule, active = well fitted cell-killing curve with a large enough effect; inconclusive = small, poorly fitted or top-dose-only effect, or effect the other way, or another doubt; inactive = no such curve, though single readings can be large or run the other way. No potency is given beside an inconclusive call; the fits are too rough.
# Assay: qHTS for induction of synthetic lethality in tumor cells producing 2HG: qHTS for the HT-1080-IDH1KD cell line
# Conditions: HT-1080 IDH1 knockdown viability, ATP luminescence, 48 h; series mostly up to 46.1 µM
# How it was run: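 In this qHTS, HT-1080 cells depleted of IDH1 are exposed for 48 h at 37 °C to compound titrations. Toxicity is scored from CellTiter-Glo luminescence, with DMSO as full viability and medium alone as none.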
# Potency is read from the fitted curve at half-maximal effect; tags tell the direction and shape of the fitted curve.
row,SMILES,Potency
1,CCOC(=O)c1c2c(n(Cc3ccccc3)c1C)C(=O)C(=O)c1ccccc1-2,"inconclusive [cytotoxic, single point]"
2,CC(C)c1ccc(CNC(=O)C(=O)NCC2CCCO2)cc1 (stereo not given),"inconclusive [cytotoxic, single point]"
3,CN(CC(O)CON=C1c2ccccc2-c2ccccc21)S(=O)(=O)c1ccc(Br)cc1 (stereo not given),"inconclusive [cytotoxic, single point]"
4,O=C(O)c1cn(C2CCCCC2)c2ccccc2c1=O,inactive
5,O=[N+]([O-])c1ccc(Nc2c3ccccc3nc3ccccc23)cc1,"inconclusive [cytotoxic, single point]"
6,Cc1nc(Nc2ccc(S(N)(=O)=O)cc2)sc1-c1ccccc1,"inconclusive [cytotoxic, single point]"
7,CC(C)(CC(=O)O)CC(=O)N1CCN(c2cc(C(F)(F)F)nc3ccccc23)CC1,inactive
8,O=C(CNc1ccc(F)cc1)N/N=C/c1c(O)ccc2ccccc12,active: 10.3 µM
9,CC(C)(C)OC(=O)CNC(=O)c1nc[nH]c1C(=O)NCC(=O)OC(C)(C)C,"inconclusive [cytotoxic, full curve, poor fit]"
10,Cc1cc(C)n(Cc2ccc(NC(=O)c3ccc(COc4ccccc4Br)cc3)cc2)n1,"inconclusive [cytotoxic, single point]"
11,CC[n+]1c(/C=C/N(C)c2ccccc2)oc2ccccc21,"inconclusive [cytotoxic, partial curve, poor fit]"
12,CCCCS(=O)CC(O)COc1ccc(C(C)(C)C)cc1 (stereo not given),"inconclusive [cytotoxic, single point]"
13,CC(C)(O)C#Cc1ccc(N2C(c3ccsc3)=Cc3ccc(F)cc3C2c2c[nH]c3ccc(C#N)cc23)cc1 (stereo not given),active: 23.1 µM
14,O=C(CN1CCCC1)N/N=C/c1c(O)ccc2ccccc12,active: 16.4 µM
15,Cc1oc(=O)c(NC(=O)c2cccc(Cl)c2)cc1C(=O)c1ccccc1,"inconclusive [cytotoxic, single point]"
16,CN(C)CCCN(C(=O)c1ccco1)c1nc2cc3c(cc2s1)OCO3,"inconclusive [cytotoxic, single point]"
17,COc1ccc(-c2c(C#N)c(N)nc3c2CCc2ccccc2-3)cc1OC,active: 20.6 µM
18,O=c1oc2ccccc2cc1-c1cn2cccnc2n1,inactive
19,Cc1ccccc1OCCCn1c(CO)nc2ccccc21,inactive
20,N#Cc1c(NC(=O)Cn2c(=O)oc3ccccc32)oc(-c2ccccc2)c1-c1ccccc1,"inconclusive [cytotoxic, single point]"
